Source: PubChem BioAssay AID889 (National Center for Advancing Translational Sciences (NCATS), 2007)
In all, about 75,000 compounds went through this assay and about 15 (0.02%) were called active. Inconclusive results, whose numbers are uncertain, are shown with a selection of clear calls. The call rests on the fitted dose curve; in most records, active means well fitted inhibition curve with a large enough effect in the main read-out, with a control signal flat (not every such curve was filed as active); inconclusive means small, poorly fitted or top-dose-only effect, or a change in a side signal; inactive means flat fitted curve, though single readings scatter. Where the call is inconclusive, the potency comes from a doubtful curve fit. A note “side channel” means that the fit belongs to a control or component signal, not to the main read-out.
Potency means the concentration at half of the fitted maximal effect; tags describe the fitted curve by direction and shape or compound fluorescence and quenching.
Wherever activity change, negative = inhibition is given: % of control where 0% means no effect.

What follows are molecules tested against Caspase-7 (Homo sapiens) (UniProt P55210) (assay: qHTS Assay for Allosteric/Competitive Inhibitors of Caspase-7). Conditions: recombinant caspase-7, Ac-DEVD-AFC fluorescence rate; activity change, negative = inhibition: at 57.5 µM (top of the series) unless noted.
Chain of UniProt P55210 (P55210 whole entry, looked up): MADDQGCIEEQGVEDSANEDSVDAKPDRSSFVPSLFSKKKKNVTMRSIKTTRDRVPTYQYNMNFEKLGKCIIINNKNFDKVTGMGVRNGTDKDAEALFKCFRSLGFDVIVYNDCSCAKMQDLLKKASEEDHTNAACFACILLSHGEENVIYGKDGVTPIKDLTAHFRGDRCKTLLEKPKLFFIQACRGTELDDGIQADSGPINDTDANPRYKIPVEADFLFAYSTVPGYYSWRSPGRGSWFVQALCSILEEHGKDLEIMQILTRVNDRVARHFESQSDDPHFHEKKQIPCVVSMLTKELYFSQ
COCCn1c(=O)c(-c2cc(F)cc(F)c2)nc2cnc(Oc3ccc(OC)cc3)nc21 was tested, and the Potency was inconclusive: 25.1 µM [inhibitor, single point]. In the case of CCOC(=O)C1CCN(S(=O)(=O)c2cccc(-c3cn4cccc(C)c4n3)c2)CC1, the Potency is reported as “inactive”. In the case of Cc1nc2c(c(=O)n1Cc1ccco1)c1nc3ccccc3nc1n2Cc1ccccc1, the Potency is reported as inconclusive: 25.1 µM [inhibitor, partial curve]. CCNc1ncc2nc(-c3cccs3)c(=O)n(-c3ccccc3)c2n1 was tested, and the Potency was inconclusive: 1 µM [fluorescent, side channel, full curve]. In the case of CCCSC1=N/C(=C\C=C\c2ccco2)C(=O)S1, the Potency is reported as inconclusive: 12.6 µM [inhibitor, partial curve]. With COc1ccc(Oc2ncc3nc(-c4ccc(Cl)cc4)c(=O)n(CCC#N)c3n2)cc1 the Potency was inconclusive: 20 µM [fluorescent, side channel, single point]. With O=C(/C=C/Nc1cccc(O)c1)c1ccccc1 the Potency was “inactive”. In the case of COc1ccc(CCn2c(-c3ccco3)nc3nc4ccccc4nc32)cc1, the Potency is reported as inconclusive: 7.94 µM [inhibitor, partial curve]. With Cc1cc2cc(C(c3nnnn3Cc3ccco3)N3CCc4ccccc4C3)c(=O)[nH]c2cc1C (stereo not drawn) the Potency was inconclusive: 31.6 µM [inhibitor, single point]. Cc1csc(NC(=O)c2cc3c(s2)-c2ccccc2OC3)n1 was tested, and the Potency was inconclusive: 15.8 µM [fluorescent, side channel, partial curve]. With NC[C@@H]1O[C@@H](O[C@H]2[C@H](O)[C@H](O[C@@H]3O[C@H](CO)[C@@H](O)[C@H](N)[C@@H]3O)[C@@H](N)C[C@H]2N)[C@H](N)C[C@@H]1O the Potency was “inactive”. For CC1(C)Cc2c(c(N3CCOCC3)nc3sc(-c4ccc(C(=O)O)o4)c(N)c23)CO1, the Potency was inconclusive: 12.6 µM [fluorescent, side channel, partial curve]. For CC(CCC(=O)O)C1CCC2C3CC[C@H]4CC(O)CC[C@@]4(C)C3C=C[C@]12C (stereo partly drawn), the Potency was inconclusive: 25.1 µM [inhibitor, single point]. For Cc1ccc(CCCC(=O)O)cc1C, the activity change, negative = inhibition was inactive: -0.41% [at 11.5 µM]. CCOC(=O)c1sc2nc(C)cc(C)c2c1N was tested, and the Potency was inconclusive: 25.1 µM [inhibitor, single point]. With COC(=O)C1=C(C)NC2=C(C(=O)CCC2)C1c1cccc(C)n1 (stereo not drawn) the Potency was inconclusive: 15.8 µM [fluorescent, side channel, partial curve]. For O=c1[nH]c2ccc(Br)cc2c(-c2ccccc2)c1N1CCOCC1, the Potency was inconclusive: 31.6 µM [inhibitor, single point]. O=C(NCCc1c[nH]c2ccccc12)[C@H]1C[C@@H]1[C@H](NP(=O)(c1ccccc1)c1ccccc1)c1ccccc1 was tested, and the Potency was “inactive”. In the case of COc1ccc(-c2cc(C(F)F)n3ncc(C(=O)NCC4CCCO4)c3n2)cc1 (stereo not drawn), the Potency is reported as inconclusive: 7.94 µM [fluorescent, full curve]. In the case of CNC(=O)c1ccc(-c2sc3nc(N4CCOCC4)c4c(c3c2N)CCCC4)o1, the Potency is reported as inconclusive: 3.16 µM [fluorescent, side channel, partial curve]. With N#CCCn1c(=O)c(CCc2ccccc2)nc2cnc(N3CCOCC3)nc21 the Potency was inconclusive: 20 µM [fluorescent, partial curve]. COc1ccc(CNc2ncncc2-c2ccc(N(C)C)cc2)c(OC)c1 was tested, and the Potency was inconclusive: 31.6 µM [inhibitor, single point]. In the case of CCc1c(C)nc2ncnn2c1NCCc1ccc(OC)c(OC)c1, the Potency is reported as “inactive”. Cc1ccc(N=c2oc3cc(O)ccc3cc2C(N)=O)cc1 was tested, and the Potency was inconclusive: 25.1 µM [fluorescent, partial curve]. For COc1ccc(-c2nc3cnc(N4CCNCC4)nc3n(CCc3ccccc3)c2=O)cc1, the Potency was inconclusive: 12.6 µM [fluorescent, side channel, partial curve]. In the case of COc1ccc2[nH]c(=O)c(CN(Cc3ccco3)Cc3nnnn3Cc3ccccc3)cc2c1, the Potency is reported as inconclusive: 20 µM [fluorescent, side channel, partial curve]. In the case of CCOc1ccc(NC(C)=O)cc1, the Potency is reported as “inactive”. With COc1ccc(NC(=O)c2oc3ccccc3c2NC(=O)C(C)(C)C)cc1 the Potency was “inactive”. O=S1(=O)C=C(Sc2nc3ccccc3s2)c2ccccc21 was tested, and the Potency was “inactive”. For c1cn(-c2cc(-c3ccc4c(c3)OCO4)ncn2)cn1, the Potency was inconclusive: 25.1 µM [inhibitor, single point]. With CCN1C(=O)c2cccc3c(NC(=O)c4ccc5c(c4)OCCO5)ccc1c23 the Potency was “inactive”. In the case of CCOC(=O)c1cc2sccc2n1CC(=O)N1CCCc2ccccc21, the Potency is reported as “inactive”. COc1ccc(Cn2nnnc2CN(Cc2cc3ccc(C)cc3[nH]c2=O)C2CCCC2)cc1 was tested, and the Potency was inconclusive: 39.8 µM [inhibitor, single point]. CCN1C=C(C(=O)OC)C(c2cccc(C)c2)C(C(=O)OC)=C1 was tested, and the Potency was inconclusive: 10 µM [fluorescent, side channel, partial curve]. With Cc1ccc2c(c1)c1c3n2CCN=C3CCC1 the Potency was inconclusive: 25.1 µM [inhibitor, single point]. CCCCC(CC)Cn1c(N)c(C#N)c2nc3ccccc3nc21 (stereo not drawn) was tested, and the Potency was inconclusive: 15.8 µM [fluorescent, side channel, partial curve]. For COc1ccccc1CN1CCCC2(CCN(C(=O)c3cccc(F)c3)CC2)C1, the Potency was “inactive”. In the case of COc1ccc(OC)c(NC=C2C(=O)OC(C)(C)OC2=O)c1, the Potency is reported as inconclusive: 12.6 µM [inhibitor, partial curve]. CC1(C)Cc2cccc(OCC(=O)Nc3ccccc3N3CCOCC3)c2O1 was tested, and the Potency was “inactive”. With COc1ccc(Oc2ncc3nc(-c4cccs4)c(=O)n(Cc4cccs4)c3n2)cc1 the Potency was inconclusive: 12.6 µM [fluorescent, partial curve]. With CCOC(=O)C1CCCN(Cc2ccc(O)c(OC)c2)C1 (stereo not drawn) the Potency was “inactive”. For N#CC(C(=O)NCc1ccco1)c1nc2ccccc2nc1N1CCOCC1 (stereo not drawn), the Potency was inconclusive: 31.6 µM [inhibitor, single point]. For CC(C)(C)NCC(O)c1cc(O)cc(O)c1 (stereo not drawn), the Potency was inconclusive: 20 µM [fluorescent, partial curve]. With O=C(Nc1ccccc1N1CCCC1)c1ccc2c(c1)OCO2 the Potency was “inactive”. For Cc1cccn2c(=O)c3cc(C#N)c(=NC(=O)c4ccncc4)n(CCCOC(C)C)c3nc12, the Potency was inconclusive: 1.58 µM [fluorescent, side channel, full curve]. N#CC12C(N)=NC3(OCCO3)C1(C#N)C1=C(CCC1)NC2c1ccccc1 (stereo not drawn) was tested, and the Potency was inconclusive: 25.1 µM [fluorescent, single point]. COc1ccc2[nH]cc(CCNc3cc(-c4ccc5c(c4)OCO5)ncn3)c2c1 was tested, and the Potency was “inactive”. For COCCn1c(=O)c(CCc2ccccc2)nc2cnc(Nc3cccc(OC)c3)nc21, the Potency was inconclusive: 25.1 µM [fluorescent, partial curve]. N#CCCn1c(=O)c(-c2ccccc2)nc2cnc(Oc3cccc(Cl)c3)nc21 was tested, and the Potency was inconclusive: 25.1 µM [fluorescent, single point]. For COc1ccc(-c2cc(C(=O)NCc3cccs3)no2)cc1OC, the Potency was “inactive”. COc1ccc(NC(=O)Cn2nnc(-c3ccccc3NC(=O)c3cccs3)n2)cc1 was tested, and the Potency was “inactive”. With c1ccc([C@@H]2CN3CCSC3=N2)cc1 the Potency was “inactive”. For O=C(c1cc2c(ccc3ccccc32)oc1=O)N1CCN(CCO)CC1, the Potency was inconclusive: 25.1 µM [fluorescent, partial curve]. For COc1cccc(Cn2c(C3CC3)nc3ccc(NC(=O)c4ccco4)cc3c2=O)c1, the Potency was “inactive”. CCOc1ccccc1CN(CCc1ccc2c(c1)OCO2)Cc1ccccn1 was tested, and the Potency was “inactive”. For COc1ccc(NC(=O)c2ccc3c(c2)C(=O)N(Cc2cccnc2)C3=O)c(OC)c1, the Potency was “inactive”. N#Cc1ccc(NC(=O)c2cc3cc4c5c(c3oc2=N)CCCN5CCC4)cc1 was tested, and the Potency was inconclusive: 3.16 µM [inhibitor, full curve]. In the case of CN1CCN(c2ncc3nc(-c4ccccc4)c(=O)n(C4CC4)c3n2)CC1, the Potency is reported as inconclusive: 5.01 µM [fluorescent, side channel, partial curve]. c1ccc2c(c1)CCN(c1nc3cc4c(cc3s1)OCO4)C2 was tested, and the Potency was “inactive”. In the case of Nc1ncnc2oc(-c3ccco3)c(-c3ccco3)c12, the Potency is reported as inconclusive: 25.1 µM [inhibitor, single point]. In the case of N#CCCn1c(=O)c(-c2ccc(F)cc2)nc2cnc(N3CCOCC3)nc21, the Potency is reported as inconclusive: 10 µM [fluorescent, side channel, partial curve]. For COCCn1c(N)c(C(=O)OCc2ccccc2)c2nc3ccccc3nc21, the Potency was inconclusive: 15.8 µM [fluorescent, partial curve]. In the case of N#Cc1ccccc1NC(=O)c1ccccc1OCC(=O)Nc1ccc2c(c1)oc1ccccc12, the Potency is reported as “inactive”. For O=C1Nc2ccc(S(=O)(=O)NCc3ccccn3)c3cccc1c23, the Potency was inconclusive: 15.8 µM [fluorescent, side channel, partial curve]. CCOC(=O)c1cc2c(=O)n3cccc(C)c3nc2n(Cc2ccccc2Cl)c1=N was tested, and the Potency was inconclusive: 10 µM [inhibitor, partial curve]. For CC(C)=CCc1c2c(c3occ(-c4ccc(O)cc4)c(=O)c3c1O)C=CC(C)(C)O2, the Potency was “inactive”. O=C(Nc1ccc(N2CCOCC2)cc1)Nc1ccc2nc(-c3ccco3)c(-c3ccco3)nc2c1 was tested, and the Potency was “inactive”. O=C(O)c1cc(-c2ccc(-c3ccc(-c4cc(C(=O)O)c5cc(Cl)ccc5n4)cc3)cc2)nc2ccc(Cl)cc12 was tested, and the Potency was inconclusive: 6.31 µM [inhibitor, single point].
